Measured values published in patent US20250387505A1, “ANTI-FGFR3 ANTIBODY CONJUGATE AND MEDICAL USE THEREOF” (GENEQUANTUM HEALTHCARE (SUZHOU) CO., LTD., priority 2022, published 2025).

B1: ADC19 (A9Q conjugated with Linker-Payload 1) (antibody, human IgG1, lambda, DAR 3.62)
heavy: EVQLLESGGGLVQPGGSLRLSCAASGFTFSSYDMSWVRQAPGKGLEWVSGIYSGDGSIYYADSVKGRFTISRDNSKNTLYLQMNSLRAEDTAVYYCAKDGPMNEESRFDYWGQGTLVTVSS[human IgG1 constant region not written out]
light: QSVLTQPPSASGTPGQRVTISCSGSSSNIGNNYVSWYQQLPGTAPKLLIYADSKRPSGVPDRFSGSKSGTSASLAISGLRSEDEADYYCASWDYSLSGYVFGGGTKLTVLGQPKAAPSVTLFPPSSEELQANKATLVCLISDFYPGAVTVAWKADSSPVKAGVETTTPSKQSNNKYAASSYLSLTPEQWKSHRSYSCQVTHEGSTVEKTVAPTECGALPETGG
modifications: here or on the partner: C-terminal LPETGG: the peptide bond upstream of GG is cleaved by Sortase A and the chain is linked to the free N-terminal G3 of Linker-Payload 1 (two DXd payloads per linker)
B2: ADC20 (A9Q conjugated with Linker-Payload 2) (antibody, human IgG1, lambda, DAR 3.58)
heavy: EVQLLESGGGLVQPGGSLRLSCAASGFTFSSYDMSWVRQAPGKGLEWVSGIYSGDGSIYYADSVKGRFTISRDNSKNTLYLQMNSLRAEDTAVYYCAKDGPMNEESRFDYWGQGTLVTVSS[human IgG1 constant region not written out]
light: QSVLTQPPSASGTPGQRVTISCSGSSSNIGNNYVSWYQQLPGTAPKLLIYADSKRPSGVPDRFSGSKSGTSASLAISGLRSEDEADYYCASWDYSLSGYVFGGGTKLTVLGQPKAAPSVTLFPPSSEELQANKATLVCLISDFYPGAVTVAWKADSSPVKAGVETTTPSKQSNNKYAASSYLSLTPEQWKSHRSYSCQVTHEGSTVEKTVAPTECGALPETGG
modifications: here or on the partner: C-terminal LPETGG: the peptide bond upstream of GG is cleaved by Sortase A and the chain is linked to the free N-terminal G3 of Linker-Payload 2 (two payloads per linker)

Molecular target: FGFR3 on AMB-BT-0050T cells (glioblastoma patient-derived cells with positive FGFR3 expression) (human (patient-derived cells)), P22607
Assay: cell-based or functional assay

| Binder | IC50 (nM), cytotoxicity on 3D single spheroids [nM] |
| --- | --- |
| B1 | 1 |
| B2 | 0.4 |
